Substitutions are numbered along the chain they refer to; changes in the protein carry UniProt numbers. Some of the results follow.
T1: RBFOX1 RRM RbFoxmut (Fox-RRM*) (Homo sapiens, UniProt Q9NWB1 109-208, R118D;E147R;N151S;E152T)
T1 sequence: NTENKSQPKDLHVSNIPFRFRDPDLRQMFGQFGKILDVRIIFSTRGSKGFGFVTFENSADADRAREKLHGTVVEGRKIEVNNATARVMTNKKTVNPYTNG

B1: AGGUCGU (DNA:RNA)
RNA: GGGAGACCGGAAUUCAGAUUGUCCAGGUCGUUUAAAUCCCGUCGUAGCCACCA
DNA 1: CAATCTGAATTCCGGTCTCCC
DNA 2: TGGTGGCTACGACGGGATT
B2: GUCUGAC (DNA:RNA)
RNA: B1 RNA with A25G, G26U, G27C, C29G, G30A, U31C
DNA 1: CAATCTGAATTCCGGTCTCCC
DNA 2: TGGTGGCTACGACGGGATT
B3: CAAGUUU (DNA:RNA)
RNA: B1 RNA with A25C, G26A, G27A, U28G, C29U, G30U
DNA 1: CAATCTGAATTCCGGTCTCCC
DNA 2: TGGTGGCTACGACGGGATT
B4: GACAGCA (DNA:RNA)
RNA: GGGAGACCGGAAUUCAGAUUGUCCGACAGCAUUAAAUCCCGUCGUAGCCACCA
DNA 1: CAATCTGAATTCCGGTCTCCC
DNA 2: TGGTGGCTACGACGGGATT
B5: CAUGUGC (DNA:RNA)
RNA: B1 RNA with A25C, G26A, G27U, U28G, C29U, U31C
DNA 1: CAATCTGAATTCCGGTCTCCC
DNA 2: TGGTGGCTACGACGGGATT
B6: CGUCUCG (DNA:RNA)
RNA: B1 RNA with A25C, G27U, U28C, C29U, G30C, U31G
DNA 1: CAATCTGAATTCCGGTCTCCC
DNA 2: TGGTGGCTACGACGGGATT
B7: AGCCCGC (DNA:RNA)
RNA: B1 RNA with G27C, U28C, U31C
DNA 1: CAATCTGAATTCCGGTCTCCC
DNA 2: TGGTGGCTACGACGGGATT
B8: CUGGCCC (DNA:RNA)
RNA: B1 RNA with A25C, G26U, U28G, G30C, U31C
DNA 1: CAATCTGAATTCCGGTCTCCC
DNA 2: TGGTGGCTACGACGGGATT
B9: UACCUCG (DNA:RNA)
RNA: B4 RNA with G25U, A28C, G29U, A31G
DNA 1: CAATCTGAATTCCGGTCTCCC
DNA 2: TGGTGGCTACGACGGGATT
B10: GAGUCCU (DNA:RNA)
RNA: B1 RNA with A25G, G26A, G30C
DNA 1: CAATCTGAATTCCGGTCTCCC
DNA 2: TGGTGGCTACGACGGGATT
B11: ACUAACA (DNA:RNA)
RNA: B4 RNA with G25A, A26C, C27U, G29A
DNA 1: CAATCTGAATTCCGGTCTCCC
DNA 2: TGGTGGCTACGACGGGATT
B12: UCAGAAC (DNA:RNA)
RNA: GGGAGACCGGAAUUCAGAUUGUCCUCAGAACUUAAAUCCCGUCGUAGCCACCA
DNA 1: CAATCTGAATTCCGGTCTCCC
DNA 2: TGGTGGCTACGACGGGATT
B13: CACUAGC (DNA:RNA)
RNA: B1 RNA with A25C, G26A, G27C, C29A, U31C
DNA 1: CAATCTGAATTCCGGTCTCCC
DNA 2: TGGTGGCTACGACGGGATT
B14: AGAUUCC (DNA:RNA)
RNA: B1 RNA with G27A, C29U, G30C, U31C
DNA 1: CAATCTGAATTCCGGTCTCCC
DNA 2: TGGTGGCTACGACGGGATT
B15: AGGGGGC (DNA:RNA)
RNA: B1 RNA with U28G, C29G, U31C
DNA 1: CAATCTGAATTCCGGTCTCCC
DNA 2: TGGTGGCTACGACGGGATT
B16: CCUGGUA (DNA:RNA)
RNA: B4 RNA with G25C, A26C, C27U, A28G, C30U
DNA 1: CAATCTGAATTCCGGTCTCCC
DNA 2: TGGTGGCTACGACGGGATT
B17: AUUGAUC (DNA:RNA)
RNA: B12 RNA with U25A, C26U, A27U, A30U
DNA 1: CAATCTGAATTCCGGTCTCCC
DNA 2: TGGTGGCTACGACGGGATT
B18: GGGCCCG (DNA:RNA)
RNA: B1 RNA with A25G, U28C, G30C, U31G
DNA 1: CAATCTGAATTCCGGTCTCCC
DNA 2: TGGTGGCTACGACGGGATT
B19: CUUCGCG (DNA:RNA)
RNA: B4 RNA with G25C, A26U, C27U, A28C, A31G
DNA 1: CAATCTGAATTCCGGTCTCCC
DNA 2: TGGTGGCTACGACGGGATT
B20: GUACCGC (DNA:RNA)
RNA: B1 RNA with A25G, G26U, G27A, U28C, U31C
DNA 1: CAATCTGAATTCCGGTCTCCC
DNA 2: TGGTGGCTACGACGGGATT
B21: CCUCUCA (DNA:RNA)
RNA: B4 RNA with G25C, A26C, C27U, A28C, G29U
DNA 1: CAATCTGAATTCCGGTCTCCC
DNA 2: TGGTGGCTACGACGGGATT
B22: UUCUAGU (DNA:RNA)
RNA: B1 RNA with A25U, G26U, G27C, C29A
DNA 1: CAATCTGAATTCCGGTCTCCC
DNA 2: TGGTGGCTACGACGGGATT
B23: AGUCAAC (DNA:RNA)
RNA: B12 RNA with U25A, C26G, A27U, G28C
DNA 1: CAATCTGAATTCCGGTCTCCC
DNA 2: TGGTGGCTACGACGGGATT
B24: CACGUUU (DNA:RNA)
RNA: B4 RNA with G25C, A28G, G29U, C30U, A31U
DNA 1: CAATCTGAATTCCGGTCTCCC
DNA 2: TGGTGGCTACGACGGGATT
B25: CUGGGAG (DNA:RNA)
RNA: B12 RNA with U25C, C26U, A27G, A29G, C31G
DNA 1: CAATCTGAATTCCGGTCTCCC
DNA 2: TGGTGGCTACGACGGGATT
B26: CGACCUG (DNA:RNA)
RNA: B1 RNA with A25C, G27A, U28C, G30U, U31G
DNA 1: CAATCTGAATTCCGGTCTCCC
DNA 2: TGGTGGCTACGACGGGATT
B27: CGGAACG (DNA:RNA)
RNA: B1 RNA with A25C, U28A, C29A, G30C, U31G
DNA 1: CAATCTGAATTCCGGTCTCCC
DNA 2: TGGTGGCTACGACGGGATT
B28: GCUUCGU (DNA:RNA)
RNA: B1 RNA with A25G, G26C, G27U
DNA 1: CAATCTGAATTCCGGTCTCCC
DNA 2: TGGTGGCTACGACGGGATT
B29: CUGACGA (DNA:RNA)
RNA: B1 RNA with A25C, G26U, U28A, U31A
DNA 1: CAATCTGAATTCCGGTCTCCC
DNA 2: TGGTGGCTACGACGGGATT
B30: AGGAAUA (DNA:RNA)
RNA: B1 RNA with U28A, C29A, G30U, U31A
DNA 1: CAATCTGAATTCCGGTCTCCC
DNA 2: TGGTGGCTACGACGGGATT
B31: AAAAAAC (DNA:RNA)
RNA: B12 RNA with U25A, C26A, G28A
DNA 1: CAATCTGAATTCCGGTCTCCC
DNA 2: TGGTGGCTACGACGGGATT

Target: T1, RBFOX1 RRM RbFoxmut (Fox-RRM*)
Experiment: EMSA; HiTS-Eq, 1 nM pool, 10 min; buffer printed only for the single-RNA assays: 10 mM Tris pH 7.5, 150 mM NaCl, 3.4 mM EDTA, 0.001% NP-40, 30 C
Conditions: tags: His6 N-terminal (pET28a); label: 5' 32P
In short: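 Purified wild-type or mutant RbFox RRM at increasing concentrations was equilibrated with 1 nM of 5′-radiolabelled RNA carrying 7 randomized nucleotides for 10 min in 50 µL. Unbound RNA was separated by 8% native PAGE and sequenced. Relative association constants came from read-count changes of each RNA species compared with the control reaction, normalised to the cognate motif.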

Compared with B1, B2 is lower in binding signal: 0.128 KA relative to UGCAUGU for the first, 0.104 KA relative to UGCAUGU for the second.

First: B3
Second: B4
The binding signal of the first is higher: 0.11 KA relative to UGCAUGU for the first, 0.0964 KA relative to UGCAUGU for the second.

First: B5
Second: B6
The binding signal of the first is lower: 0.139 KA relative to UGCAUGU for the first, 0.162 KA relative to UGCAUGU for the second.

First: B7
Second: B8
The binding signal of the first is lower: 0.0869 KA relative to UGCAUGU for the first, 0.0909 KA relative to UGCAUGU for the second.

First: B9
Second: B10
The binding signal of the first is higher: 0.107 KA relative to UGCAUGU for the first, 0.0759 KA relative to UGCAUGU for the second.

First: B11
Second: B12
The binding signal of the first is higher: 0.125 KA relative to UGCAUGU for the first, 0.0854 KA relative to UGCAUGU for the second.

Compared with B13, B14 is lower in binding signal: 0.117 KA relative to UGCAUGU for the first, 0.0687 KA relative to UGCAUGU for the second.

First: B15
Second: B16
The binding signal of the first is lower: 0.115 KA relative to UGCAUGU for the first, 0.137 KA relative to UGCAUGU for the second.

First: B17
Second: B18
The binding signal of the first is lower: 0.0635 KA relative to UGCAUGU for the first, 0.133 KA relative to UGCAUGU for the second.

First: B19
Second: B20
The binding signal of the first is higher: 0.143 KA relative to UGCAUGU for the first, 0.0842 KA relative to UGCAUGU for the second.

First: B21
Second: B22
The binding signal of the first is lower: 0.0614 KA relative to UGCAUGU for the first, 0.158 KA relative to UGCAUGU for the second.

First: B23
Second: B24
The binding signal of the first is lower: 0.0571 KA relative to UGCAUGU for the first, 0.105 KA relative to UGCAUGU for the second.

First: B25
Second: B26
The binding signal of the first is higher: 0.119 KA relative to UGCAUGU for the first, 0.0669 KA relative to UGCAUGU for the second.

Compared with B27, B28 is lower in binding signal: 0.53 KA relative to UGCAUGU for the first, 0.184 KA relative to UGCAUGU for the second.

First: B29
Second: B30
The binding signal of the first is lower: 0.0574 KA relative to UGCAUGU for the first, 0.155 KA relative to UGCAUGU for the second.

With B31 the binding signal was 0.0759 KA relative to UGCAUGU.
